Data: PMC4336329 (PLoS ONE, 2015)
Hit rate of the full screen: of about 310,000 compounds, about 14,000 (4.5%) showed an effect of 50% or more. Effects have a minus sign here. The list shows a part of the results.

What follows are molecules tested against human ether-à-go-go-related gene (hERG) potassium channel (human, UniProt Q12809) (assay: primary screen, population patch clamp on CHO cells stably expressing hERG).
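Also: peak tail current of the secondary pulse compared with the same well before compound.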

human ether-à-go-go-related gene (hERG) potassium channel, sequence (Q12809 whole entry, looked up): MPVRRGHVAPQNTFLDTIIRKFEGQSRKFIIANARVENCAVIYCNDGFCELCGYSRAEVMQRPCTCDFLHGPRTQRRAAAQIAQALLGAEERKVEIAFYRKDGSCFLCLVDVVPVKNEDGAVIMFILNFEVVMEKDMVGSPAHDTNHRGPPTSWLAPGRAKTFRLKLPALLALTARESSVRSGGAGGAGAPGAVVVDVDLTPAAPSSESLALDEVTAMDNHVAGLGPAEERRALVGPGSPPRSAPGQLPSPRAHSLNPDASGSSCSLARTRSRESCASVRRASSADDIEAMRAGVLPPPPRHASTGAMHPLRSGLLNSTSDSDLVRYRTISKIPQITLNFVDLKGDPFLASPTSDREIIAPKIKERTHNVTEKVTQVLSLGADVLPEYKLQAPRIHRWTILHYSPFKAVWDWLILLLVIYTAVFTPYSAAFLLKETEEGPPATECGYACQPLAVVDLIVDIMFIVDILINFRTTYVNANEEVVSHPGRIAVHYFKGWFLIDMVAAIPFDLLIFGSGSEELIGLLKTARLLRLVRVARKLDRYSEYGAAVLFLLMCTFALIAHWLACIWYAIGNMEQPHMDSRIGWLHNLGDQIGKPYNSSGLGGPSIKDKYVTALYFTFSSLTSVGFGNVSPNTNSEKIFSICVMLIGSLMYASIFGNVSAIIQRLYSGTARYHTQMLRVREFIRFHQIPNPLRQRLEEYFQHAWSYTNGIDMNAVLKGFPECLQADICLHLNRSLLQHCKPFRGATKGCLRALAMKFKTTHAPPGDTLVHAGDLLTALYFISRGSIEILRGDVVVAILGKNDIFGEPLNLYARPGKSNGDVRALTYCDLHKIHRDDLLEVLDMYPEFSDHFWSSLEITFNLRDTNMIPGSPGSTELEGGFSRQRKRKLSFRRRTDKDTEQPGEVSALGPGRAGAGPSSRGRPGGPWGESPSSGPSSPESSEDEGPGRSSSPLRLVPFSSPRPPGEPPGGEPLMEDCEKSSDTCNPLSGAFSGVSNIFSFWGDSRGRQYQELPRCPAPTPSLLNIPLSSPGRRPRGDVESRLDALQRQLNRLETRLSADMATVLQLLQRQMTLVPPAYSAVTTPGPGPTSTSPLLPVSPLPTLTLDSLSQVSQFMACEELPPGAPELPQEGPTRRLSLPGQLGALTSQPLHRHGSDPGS

SMILES	hERG current change (%, negative = inhibition) at 10uM [%]
COc1ccccc1N1C(=O)CC(Sc2nccc(C)n2)C1=O (stereo not drawn)	21.9
COc1ccc(N2CCN(C(=O)c3ccc(NC(=O)C4=CSCCO4)cc3)CC2)cc1	-7.63
O=C1C2(CCC13COC(c1ccc(O)cc1)OC3)COC(c1ccc(O)cc1)OC2 (stereo not drawn)	-2.43
Cc1ccc(C(=O)N/N=C\c2ccc[nH]2)cn1	15.8
CCOc1ccc(C(=O)C(C)OC(=O)c2cnc(C)cn2)cc1 (stereo not drawn)	-18.6
COc1cc(C(=O)Nc2cc(C(F)(F)F)ccc2-n2cncn2)cc(OC)c1OC	-17.7
COc1ccc2c(ccc[n+]2CC(=O)c2ccccc2)c1.[Br-]	3.65
c1csc(CNc2ncnc3ccc(-c4ccc5c(c4)OCO5)cc23)c1	12.1
CC(C)c1ccc(C2/C(=C(/O)c3ccc(F)cc3)C(=O)C(=O)N2CCCN2CCOCC2)cc1 (stereo not drawn)	8.03
CN=C(Nc1ccc2c(c1)OCO2)SC1CC(=O)N(c2ccccc2)C1=O (stereo not drawn)	-18
Cc1ccsc1C(=O)N1CCCC(C(=O)c2cc(F)ccc2F)C1 (stereo not drawn)	-5.4
O=C(CSc1nnc(Nc2ccccc2)s1)Nc1ccc(S(=O)(=O)N2CCOCC2)cc1	9.88
O=C(NC1=NN(c2ccccc2)CC1)Nc1ccccc1F	-0.489
O=C1CC2(CCN(C(=O)c3cccc([N+](=O)[O-])c3)CC2)Oc2ccccc21	-75.7
COc1ccc(CCNC(=O)Cc2ccc3c(c2)OCO3)cc1OC	0.152
O=C(O)CCC(=O)N1CCOc2ccc(Cl)cc21	2.92
Cc1ccc(C)c(OC2=NS(=O)(=O)c3ccccc32)c1	23.2
CCCC(=O)Nc1nnc(CCN2CCCCC2)s1	-7.76
Cc1cc2nnc(SCC(=O)OC(C)C)n2c2ccccc12	-9.89
COc1ccc(CC(NC(C)=O)C(=O)NC2CCN(S(=O)(=O)c3ccc(NC(C)=O)cc3)CC2)c(OC)c1 (stereo not drawn)	-8.5
COc1cccc(C(=O)NC2CCCC2)c1	16.8
CCn1cc(CNC(=O)c2cc(Cl)ccc2OC)c(C)n1	14.1
CCOCCc1nnc(NC(=O)CSc2ccccc2)s1	-17.9

SMILES	hERG current change (%, negative = inhibition) at 10uM [%]
CCN(c1ccc(NC(=O)CSc2nnc3nc(C)cc(C)n23)cc1)C(C)C	2.57
CCc1nc(SCc2ccccn2)[nH]c(=O)c1C	15.1
COc1ccc(NC(=O)C(=O)N/N=C(\C)CC(=O)Nc2cc(C)ccn2)c(OC)c1	12.3
CCC(=O)Oc1ccc(C(=O)Nc2ccccc2C(=O)NCC(C)C)cc1	15.6
COCCC(=O)N1CCc2c([nH]c3ccccc23)C1C(C)(C)C (stereo not drawn)	-2.27
CCOc1cccc(C(=O)Nc2ccc(N3CCCC3)cc2)c1	0.251
CCC(C)NC(=O)c1c(N)n(/N=C/c2ccccn2)c2nc3ccccc3nc12 (stereo not drawn)	-3.06
O=C1CC(NNC(=O)c2ccccc2)C(=O)N1 (stereo not drawn)	11.5
C/C(=C\C(=O)C(F)(F)F)Nc1ccc(C(F)(F)F)cc1	9.59
N#Cc1ccc(OCC(=O)Nc2cc(S(=O)(=O)N3CCOCC3)ccc2N2CCOCC2)cc1	-28.1
COc1ccc(-n2c(N)c(C(=O)NCC3CCCO3)sc2=S)cc1 (stereo not drawn)	-6
CCC(C)NCC(=O)Nc1ccc(-c2nc3cc(NC(=O)CNC(C)CC)ccc3o2)cc1 (stereo not drawn)	7.01
CCOc1ccc(S(=O)(=O)Nc2cccnc2)cc1	11.1
N#Cc1ccsc1NC(=O)COC(=O)c1cc(Br)ccc1O	-22.2
Cc1nc2ccccc2c2c1C(=O)N(C1CCCCCCC1)C2=O	-3.86
O=C(NCC1CCCO1)c1cc(C(=O)c2ccc(Cl)cc2Cl)c[nH]1 (stereo not drawn)	14.6
COCCCNC(=O)Cc1ccc(S(=O)(=O)N2CCOCC2)s1	11.4
CC(C)n1ncc(C(N)=O)c1N	6.4
CC(C)(C)SCCNC(=O)CN(c1ccccc1)S(=O)(=O)c1ccc(F)cc1	3.5
Clc1ccccc1-c1nnc2sc(CCc3ccccc3)nn12	-28.6
COc1cccc(COC(=O)CSCC(=O)Nc2cccc(C)c2)c1OC	4.49
COc1ccc(/C=N/NC(=O)c2ccc3ccccc3c2)cc1OS(=O)(=O)c1ccc(NC(C)=O)cc1	-16
CCOC(=O)NC(=O)C(=CNc1cccc(OC)c1)C(=O)NC(=O)OCC	17.7

SMILES	hERG current change (%, negative = inhibition) at 10uM [%]
Cc1c(N(C)S(=O)(=O)c2cc(C(=O)NCC3CCCO3)ccc2Cl)c(=O)n(-c2ccccc2)n1C (stereo not drawn)	-1.16
O=C(NCCOc1ccccc1)C1CCC(=O)N(CCCN2CCCC2=O)C1 (stereo not drawn)	4.84
CCN1CCC(C(N)=O)CC1	7.45
COc1ccc(OCCC(=O)c2ccc(OC)cc2)cc1	-3.06
Cc1cc(C)n(C(=O)c2ccc(NC(=O)C3COc4ccccc4O3)cc2)n1 (stereo not drawn)	-20.3
COc1ccccc1CNC(=O)C1CCN(S(=O)(=O)c2ccc3c(c2)C(C)(C)C(=O)N3C)CC1	-5.33
O=C(c1cccs1)N1CCN=C1SCc1cccc(F)c1	20
N#Cc1ccc(NC(=O)CN2C(=O)NC3(CCCCCCC3)C2=O)cc1Cl	13.5
O=C(NCCN1CCN(c2ccccc2F)CC1)c1cccn2c(=O)c3ccccc3nc12	-71.5
O=C(Nc1cccc(NC(=O)c2ccc(Cl)cc2)n1)c1ccc(Cl)cc1	15.1
C=CCNC(=O)/C(C#N)=C/c1cc(Br)ccc1OC	6.26
O=C(CSc1nnc(-c2n[nH]c3ccccc23)n1-c1ccccc1)Nc1ccccc1Cl	0.263
CC(O)CCC(=O)NNC(=S)Nc1ccccc1 (stereo not drawn)	16.4
O=C(COc1ccc(Cl)cc1Cl)NCCCN1CCOCC1	-20.5
C#CCNC(=O)C1=C[C@@H](c2cn(C(C)=O)c3ccccc23)C[C@@H](OCc2ccc(CO)cc2)O1	-48.7
Cc1ccc(C(=O)C(C)OC(=O)CCN=C2NS(=O)(=O)c3ccccc32)cc1 (stereo not drawn)	6.4
CCOc1ccc(OCC(=O)Nc2ccc(N3CCCCC3)cc2)cc1	4.19
Cc1cc(C)c2cc(CN(Cc3cccs3)Cc3nnnn3CC3CCCO3)c(=O)[nH]c2c1 (stereo not drawn)	-20.3
CC1=Nc2ccc(C)c3nc(C)cc(c23)N1c1ccc(C)cc1	-30.1
Cc1cc(NC(=O)CCCC(=O)N(CC(=O)NC2CCCCC2)c2ccccc2)no1	4.16
CC(C)(C)c1ccc(S(=O)(=O)NCCc2ccncc2)cc1	-0.395
CCCCC#Cc1ccc(C(=O)NNC(=O)Nc2ccccc2)o1	11.2
CCCc1ccc2oc(C(=O)NCc3nnc(C)o3)c(C)c2c1	1.52

SMILES	hERG current change (%, negative = inhibition) at 10uM [%]
COc1ccc(Cc2n[nH]c(=S)n2C)cc1Br	16.1
CCOc1ccc(NC(=O)CN(C)C(=O)c2ccccc2SCc2c(C)noc2C)cc1OCC	-30.4
O=C(CNCc1ccco1)Nc1ccc(N2CCCCCC2)cc1.O=C(O)C(=O)O	-4.13
Cc1ccc(NC(=O)CCC(=O)N/N=C/C=C/c2ccccc2)cc1	7.71
CCN(CC)C(=O)/C(=C\c1ccc2c(c1)OCO2)NC(=O)c1ccc(Br)cc1	-63.5
c1ccc(-c2c3ccccc3nc3[nH]c4ccccc4c23)cc1	18.4
COc1ccc(C2CC3CC(c4ccccc4)N2O3)cc1 (stereo not drawn)	-5.41
O=c1oc2ccccc2cc1-c1nc2ccccc2[nH]1	13.4
CNC(C(=O)c1ccccc1)C(OC(C)C)c1ccc(Cl)cc1.[O-][Cl+3]([O-])([O-])O (stereo not drawn)	-4.09
COc1ccccc1NC(=O)CSc1c2c(nc3ccccc13)CCC2	-26.3
Cc1ccsc1-c1nc(-c2ccccc2)c(-c2ccccc2)[nH]1	6.68
CCCNC(=S)N1CCC(NC(=O)c2ccc(C)cc2)CC1	-4.54
CC1CCN(c2ccc(C(=O)NCCc3ccccc3)cn2)CC1	-44.5
CC1=C(CC(=O)c2ccc(Cl)cc2)C(=O)c2ccccc2C1=O	6.4
O=C(/C=N/O)NCCCN1CCOCC1	26.4
COc1ccc(C(C)=O)cc1CSc1nnc(-c2ccc(Cl)cc2)n1-c1ccccc1	-47.5
O=c1[nH][nH]c2cc(=O)n(-c3ccc(Cl)cc3)nc12	14.3
COc1ccc(N(CC(=O)NCC2CCCO2)C(=O)CCC(=O)Nc2nccs2)c(OC)c1 (stereo not drawn)	1.59
O=[N+]([O-])c1ccc2nonc2c1Nc1cccc(F)c1	13.9
OCCCNc1cc(-c2ccnc(Nc3cccc(Cl)c3)n2)ccn1	-30.3
Cc1oc2c(c(C)cc3oc(=O)c(CC(=O)NCCC(=O)O)c(C)c32)c1C	13.8
